This is an account of results in the RNAGym collection of RNA variant scans (doi:10.7554/elife.90254).

B1: LINE1-mini (parent)
chain: GGCAGAGCUCAACACAGCGUGGCAAAGUGGCUGUGGCUAGACUGCC

The source gives no read counts; variants with many changes may rest on few reads.

The series covers variants of B1. Description: self-cleavage, relative activity (ratio to wild type); higher = more cleavage; in vitro, sequencing; the parent is a self-cleaving ribozyme.
Consider GGAAGUGCUCAACACAGCGUGGCGAAGUGGCUGUGGCUAGAUUGCC [C3A A6U A24G C42U], for which the self-cleavage came out at 0.27.

Turning to GUCAGAGCUCAACACAGCGAGGCAAAGUGGCUGUGGCUAGACAGCC [G2U U20A U43A], the self-cleavage was found to be 0.02.

Take GGAAGAGCUCGACACAGCGUGGCCAAGUGGCUGUGGCUAGACUGCG [C3A A11G A24C C46G]: the self-cleavage is 0.03.

For the variant GGAAGCGCUCAACACAGCGUGGCAAAGUGGCUGUGGCUAGACUUCC [C3A A6C G44U], the self-cleavage was 2.52.

For GGAAGGGCUCAGCACAGCAUGGCAAAGUGGCUGUGGGUAGACUGCC [C3A A6G A12G G19A C37G], the self-cleavage is 0.01.

In the case of GGACGAGCUCAACACAGCGUGGCAAAGUGGCUAUGGCUAGACUGCC [C3A A4C G33A], the self-cleavage turned out to be 0.67.

With GUCAGAGCGCAACACAGCGUCGCAAAGUGGCUCUGCCUAGACUGCC [G2U U9G G21C G33C G36C], the self-cleavage stood at 0.01.

For GGAAGAGCUCGACACAGCGUGGCCAAGUGGCUGUGGCUAGAGUGCC [C3A A11G A24C C42G], the self-cleavage was 0.01.

With GGAAGAGCUCACCACAUCAUGGCAAAGUGGCUGUGGCUAGACUGCC [C3A A12C G17U G19A], the self-cleavage is 0.15.

For the variant GGAAGUGCUCAAGACAGCGUGGCAAAGUGGCGGCGGCUAGACUGCC [C3A A6U C13G U32G U34C], the self-cleavage stood at 0.19.

With GGAUGAGCUCAACACAGCGUGGCGAAGUUGCUGUGGGUAGACUGCC [C3A A4U A24G G29U C37G], the self-cleavage is 0.45.

On to GGAUAAGCUAAACACAUCGUGGCAAAGUCGCUGUGGCUAGACUGCC [C3A A4U G5A C10A G17U G29C], for which the self-cleavage stood at 0.04.

Consider GGAAGUGCUCAACACAGAGUAGCAAAGUGGCUAUGGCUAGAAUGCU [C3A A6U C18A G21A G33A C42A C46U], for which the self-cleavage worked out at 0.02.

With GGAAGUGCUCAACACAGCGUGGCAAAGUGACUGUGGCUUGACAGCC [C3A A6U G30A A39U U43A], the self-cleavage was found to be 0.51.

With GGAAGUACUCAACACAGCGUGGCAAAGAGGCUGUGGCUAGACUGCC [C3A A6U G7A U28A], the self-cleavage amounted to 0.14.

GUCAGAGCUCAACACAGCGUGGCAAAGUGGCUGUGGCCAGACUGCU [G2U U38C C46U]: the self-cleavage worked out at 0.06.

As for GUCAGAGCUCAACACAGCGAGGCAAAGUGGCCGUUGCUAGACUGCC [G2U U20A U32C G35U], the self-cleavage was 0.02.

GUCAGAGCUCAACACAGCGUGGCAAAGUGGCUGCGGCUAUGCUGCC [G2U U34C G40U A41G]: the self-cleavage was found to be 0.02.

In the case of GGAGCAGCUCAACACGGCGUGGCAAAGUGUCUGUGGCGAGAUAGCC [C3A A4G G5C A16G G30U U38G C42U U43A], the self-cleavage was found to be 0.02.

On to GGAAGAGCUCACAACAGCGUUGCAAAGUGCCUGUGGCUCGACUGCC [C3A A12C C13A G21U G30C A39C], for which the self-cleavage was 0.04.

For the variant GUCAGAGCUCAACACAGCGUGGCAAAGUGGCUGUGGCCAGAGUGCC [G2U U38C C42G], the self-cleavage was determined as 0.04.

As for GGAAGAGCUCACCACAGCGUGGCAAAGUGGCUGUGGCCAGACUGCC [C3A A12C U38C], the self-cleavage is 0.08.

GGAGGAGCUCAACACAGCGUGGCAAAGUGGCUGUGGCUAGACUGCU [C3A A4G C46U]: the self-cleavage came to 0.12.

GGAAGAGCUCGACACAGCGUGGCAAAGGGGCUGUGGCUAGACUGCC [C3A A11G U28G]: the self-cleavage is 0.03.

Turning to GUCAGAGCUCAACACAGCGUGGCAAAGCGGAUGUGGCUAGACUGCC [G2U U28C C31A], the self-cleavage is 0.02.

On to GGAAGUGCUCAACACAGCGUGGCAAAGUGGCUGUGGUUAGACUGCC [C3A A6U C37U], for which the self-cleavage was 0.11.

Consider GGAAGAGCUCCACACAGCGUGGCAAAGUGGCUGUGGCUAGACUGAC [C3A A11C C45A], for which the self-cleavage stood at 0.03.

Turning to GUCAGAGCGCAACACAGCGUGGCAAAGUGGCUGUGGCUAGACUGAC [G2U U9G C45A], the self-cleavage worked out at 0.05.

Turning to GGACGAGCUCACCACACCGUGGCAAAGUGGCUGUGGCUAGACUGUC [C3A A4C A12C G17C C45U], the self-cleavage came out at 0.05.

In the case of GGAGUAGCUCAACACAGCGUGGCCAUGUGGCUGUGGCUAGACUGCC [C3A A4G G5U A24C A26U], the self-cleavage turned out to be 0.04.

As to GGAAGGGCUCAACACAGCGUGGCAAUGUGGCUGUGGCUAGACUGCC [C3A A6G A26U], the self-cleavage stood at 0.03.

As for GGACGAGCUCAACACAGCGUGGCAAAGUGGCUGUGGCUAUACUGCC [C3A A4C G40U], the self-cleavage was 0.21.

Regarding GGAGGAGCUCAACACAGCGUUGCAAAGUGGCUGUGGGUACACUGCC [C3A A4G G21U C37G G40C], the self-cleavage came out at 0.29.

In the case of GUCAGAGCUCAACACAGCGGGGCAAAGUGGCUGUGGCUAGACUGCG [G2U U20G C46G], the self-cleavage worked out at 0.21.

In the case of GGAAGAGCUCGACACAGCGUGGCAAAGUGGCUGUGGCUAGGCUGCC [C3A A11G A41G], the self-cleavage was 0.07.

As to GGAGGAGCUCAAAACAGCGUUGCAAAGUGGCUGUGGCUAGACUGCC [C3A A4G C13A G21U], the self-cleavage was found to be 1.38.

Turning to GGACGAGCUCAACACAGCGUGGCAAAGUGGCUGUGGUUAGACUGCC [C3A A4C C37U], the self-cleavage was 0.

GGAAGAGCUCGACACAGCGUGGCAAAGUGGCUGUGGCUUGAUUGCC [C3A A11G A39U C42U]: the self-cleavage stood at 0.02.

For GUCAGAGCUCAACACAGCGUGGCAAAGGGGCUGUGGCUCGACUGAC [G2U U28G A39C C45A], the self-cleavage was found to be 0.01.

Take GUCAGAGCGCAACACAGCGUGGCAAAGUGGCUGUGGCCAGGCUGCC [G2U U9G U38C A41G]: the self-cleavage amounted to 0.04.

Regarding GGAGGAGCUCAACACAGCGUGGCAAGGUGGCUGUGGCUAUACUGCC [C3A A4G A26G G40U], the self-cleavage was found to be 0.02.

In the case of GGAGGAGCUCAACACAGCGUGGCAAAGUGGCUACGGCUAGACUUCC [C3A A4G G33A U34C G44U], the self-cleavage was determined as 0.09.

As for GGAAGGGCUCAGCACAGCGUGCCAAAGUGGCUGUGGCUUGACUGCC [C3A A6G A12G G22C A39U], the self-cleavage was 0.04.

Consider GGAAGAGCUCGACACAGCCAGGCAAGGUGGCUGUGGCUAGACUGUC [C3A A11G G19C U20A A26G C45U], for which the self-cleavage turned out to be 0.01.

For GGAAGGGCUCAACCCAGCGUAGCAAAGUGGCUGUGGCUAAACUGCC [C3A A6G A14C G21A G40A], the self-cleavage stood at 0.03.

In the case of GGAAGAGCUCCACACUGCGUGGCAAAGUGGCUGUGGCUAGACUGCC [C3A A11C A16U], the self-cleavage came to 0.02.

On to GGACGAGCUCAACACACCGUGGCAAAGUGGCUGUGGCUAGACUGCC [C3A A4C G17C], for which the self-cleavage worked out at 0.03.

Turning to GGAAGAGCUCUAAACAGCGUGGCAAAGUGGCUGUGGCUAGACAGCC [C3A A11U C13A U43A], the self-cleavage is 0.02.

Turning to GGAAGCGCGCAACCCAGCGUGGCAAAGUCGCUGUGGCAAGACUCGC [C3A A6C U9G A14C G29C U38A G44C C45G], the self-cleavage came out at 0.01.

For GGACGAGCUCAGCACAGCGUGGCCAAGUGGCUGUAGUUAGCCUGCC [C3A A4C A12G A24C G35A C37U A41C], the self-cleavage turned out to be 0.06.

For the variant GGAUGAGCUCAACACAGAGUGGCAAAGUGGCUGUGUCUAGACUGCC [C3A A4U C18A G36U], the self-cleavage is 0.14.

For GUCAGAGCUCAACACAGCGGGGCAAAGUGGCUGUGGUUGGACUGCC [G2U U20G C37U A39G], the self-cleavage was 0.01.

With GGAAGAGCUCCACACAGCGUGACAAAGUGGCUGUGGCUAGACUGCC [C3A A11C G22A], the self-cleavage came out at 0.14.

Regarding GGAAGGGCCCAACACAGCGUGGCAAAGUGGCUGUGGCUAGACUGCC [C3A A6G U9C], the self-cleavage was found to be 0.03.

As to GUCAGAGCUCAACACAGCGUGGCAAAGUGGCUGCGGCUAGAGUGCC [G2U U34C C42G], the self-cleavage amounted to 0.01.

As to GUCAGAGCUCAACACAGCGUGGCAAAGGGGCUGUGCCUAGACUGCC [G2U U28G G36C], the self-cleavage is 0.
